Reference: PubChem BioAssay AID1508623 (National Center for Advancing Translational Sciences (NCATS), 2021)
Hit rate of the full screen: of about 48,000 compounds, about 450 (0.94%) were called active. Inconclusive results (about 19%) are left out. The call rests on the fitted dose curve; in most records, active means well fitted inhibition curve with a large enough effect; inconclusive means small, poorly fitted or top-dose-only effect; inactive means no such curve, though single readings can be large or run the other way. The list shows a part of the results.

experiment: Primary qHTS for Identification of Small Molecule Inhibitors of Huntingtin Promoter Activity; conditions: HEK293 HTT promoter firefly luciferase reporter (activity 0% = vehicle and -100% = no light), 24 h; series mostly up to 57.5 µM; activity change, negative = inhibition: at the top concentration; further: nearly all actives have a fitted effect of over 50% in size
In short: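 Firefly luciferase signal from promoter-reporter HEK293 cells was scaled between vehicle (0%) and zero RLU (-100%). Compounds were tested at final concentrations of up to 57.5 uM over 24 h at 37 degrees C. PTC124 at 50 uM final served as control inhibitor.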

Activity change, negative = inhibition, inactive:
COc1ccccc1-c1noc(-c2ccc(N(C)Cc3ccccc3)c([N+](=O)[O-])c2)n1 -11.7%
COc1ccccc1C(=O)c1c(N)c(-c2nc(-c3ccccc3)cs2)c2ccccn12 -12.7%
CCCCN(CC)C(=O)CCn1c(=O)c2cccn2c2cccnc21 1.03%
CCCCNC(=O)CN1C(=O)CSc2ccc(S(=O)(=O)N3CCC(C)CC3)cc21 -9.74%
CC(=O)c1cccc(N(C(=O)Cn2nnc3ccccc32)C(C(=O)NCc2ccccc2)c2ccc(F)cc2)c1 (configuration not stated) -8.08%
Cc1onc(-c2ccc(Br)cc2)c1C(=O)Nc1ccc(Br)cc1F 14.1%
COc1ccc(-n2c(SCC(=O)Nc3nnc(C)s3)nc3c([nH]c4ccccc43)c2=O)cc1 -20%
CC(C)N(C(=O)c1cc2c(Cl)nc3ccccc3c2s1)C1CCCCC1 3.01%
COc1cccc(CNc2ncc(-c3ccc(Br)cc3)n2C)c1 -20.1%
Cc1cccc(C(=O)Nc2cc3c(cc2N2CCOCC2)n(C)c(=O)n3C)c1 4.03%
CCOC(=O)c1ccccc1Nc1cc(C)nc2nc(-c3ccco3)nn12 -16.5%
O=C(NCCCN1CCN(c2ccccc2)CC1)c1nnc(Cc2ccc(F)cc2)o1 -28.9%
Nc1c(-c2nc(-c3ccccc3)cs2)c2ccccn2c1C(=O)c1ccc2c(c1)OCO2 -10.3%
CCOc1ccc(NC(=O)Cn2cc(C(=O)c3ccc(C)cc3)c(=O)c3cc4c(cc32)OCCO4)cc1 -4.5%
O=C(O)CC(NS(=O)(=O)c1ccc(Br)s1)c1ccccc1 (configuration not stated) 8.91%
CC1=C(C(=O)Nc2cc(C)ccc2C)C2(CCCCCC2)OC1=O 0.0374%
CC(C)OCCCN(C)C1CCN(S(=O)(=O)c2csc(C(N)=O)c2)CC1 -4.81%
COc1ccc(-n2c(C)nc3cc(C(=O)NC4CCCC4)ccc32)cc1 -22.4%
Cc1cccc(-c2nnc(SCC(=O)N3CCCc4ccccc43)o2)c1 -21.5%
CSc1cccc(NC(=O)Cn2nc(C)c3sc4ccccc4c3c2=O)c1 -21.4%
Cc1ccc(S(=O)(=O)c2nnn3c2nc(NCc2cccs2)c2sccc23)cc1C -7.87%
COC(=O)C(C)NC(=O)N1CCN(c2nnc(C)c3c(C)n(-c4ccc(Cl)cc4)nc23)CC1 (configuration not stated) -8.08%
CCCCCCCCCCCCCCCC(=O)NCCO -1.27%
Cc1cccc(CS(=O)(=O)c2ncc(Cl)c(C(=O)Nc3nc4ccc(F)cc4s3)n2)c1 -10.5%
Cc1ccc(C)c(NS(=O)(=O)c2ccc3c(c2)n(C)c(=O)n3C)c1 -31.8%
CN1CCN(C2=Nc3cc(Cl)ccc3Nc3ccccc32)CC1 -27.9%
CC(C)NC(=O)N1CCC(N2CCN(Cc3ccc(F)cc3)C(=O)C2=O)CC1 3.07%
CCc1nc2onc(C)c2c(=O)n1CC(=O)O -13%
Cc1ccccc1-c1nc(CS(=O)(=O)CC(=O)Nc2cccc(C(F)(F)F)c2)c(C)o1 -31.2%
COc1ccc2c(c1)c1c(c(=O)n(Cc3ccccc3)c(=O)n1CC(=O)Nc1c(C)cccc1C)n2C -14.2%
CCn1c(SCC(=O)N2CCC(C)CC2)nnc1-c1ccccc1O -20.3%
Cc1oc(-c2cccc(Br)c2)nc1Cn1c(=O)cc(-c2ccccc2)c2c(C)nn(C)c21 8.06%
COc1ccc(N2CCN(Cc3cc(=O)oc4ccc(OC)cc34)CC2)cc1 -7.53%
CCc1ccccc1Nc1cc(C(=O)NCCc2ccccc2)c2ccccc2n1 -13.3%
COc1ccccc1NC(=O)C1=C(C)Nc2nc3ccccc3n2C1c1cccc(Br)c1 (configuration not stated) -20.8%
O=C(Cn1c(=O)n(-c2ccc(F)cc2)c(=O)c2sc3ccccc3c21)NC1CCCCC1 -10.9%
CCOC(=O)c1ccc2c(c1)N(Cc1cccc(C(F)(F)F)c1)C(=O)c1ccccc1S2(=O)=O -6.92%
CCCOc1ccc(Nc2cc(C)nc(C)n2)cc1 25%
COc1ccc(OC)c(CCNc2nccn(-c3ccc(C)c(C)c3)c2=O)c1 -40.6%
O=C(NCC(c1cccnc1)N1CCOCC1)C(=O)Nc1ccc(F)cc1 (configuration not stated) 29.1%
Cn1c(SCc2cccc(F)c2)nc2c([nH]c3ccccc32)c1=O -8.99%
CCCn1ccc2c(OCC(=O)Nc3ccccc3OCC)cccc2c1=O -9.94%
COc1ccc(Cn2c(=O)[nH]c3cc(C(=O)N4CCN(c5ccccc5)CC4)ccc3c2=O)cc1 -5.07%
Cc1ccc(CNC(=O)CCC(=O)N2Cc3ccccc3Oc3ncccc32)cc1 -7.85%
COc1ccc(CCNC(=O)C2CCN(c3nc4ccccc4nc3C(F)(F)F)CC2)cc1OC -2.98%
Cc1ccc(NC(=O)CN2C(=O)CSc3ccc(S(=O)(=O)N4CCCC4)cc32)c(C)c1 -17.9%
COc1ccc(NC(=O)C2=C(C)C(=O)OC23CCN(C(C)C)CC3)cc1Cl -19.3%
Cc1ccccc1NC(=O)CSc1nc2ccc(NC(=O)c3ccccc3)cc2s1 -3.36%
CC(=O)OCc1cnc(C)c2oc(=O)c(C(=O)Nc3ccc(C)cc3Cl)cc12 0.773%
COc1ccc(-c2coc3c2c(C)cc2oc(=O)c(C)c(C)c23)cc1 1.86%
COc1ccccc1CNC(=O)c1ccc2c(c1)N(Cc1cc(C)ccc1C)C(=O)c1ccccc1S2 -18.9%
CCCCNC(=O)c1cc2c(=O)n3cccc(C)c3nc2s1 8.63%
CCOc1ccc(NC(=O)Cn2cc(C(=O)c3ccc(F)cc3)c(=O)c3cc4c(cc32)OCCO4)cc1 -3.67%
COc1ccc(NC(=O)Cn2cnc3ccc(S(=O)(=O)N4CCC(C)CC4)cc3c2=O)cc1Cl -12%
CC(C)(C)OC(=O)N1CCC(c2c(C(=O)NCCN3CCCC3)cnn2-c2ccc(Cl)cc2)CC1 -3.8%
CCOc1ccc(/C=C/c2nc(C#N)c(NC3CCCCC3)o2)cc1 0.934%
CC(=O)c1cc2c(cc1N/C(=N/S(=O)(=O)c1ccccc1)c1ccc(Cl)cc1)OCO2 -8.6%
Cc1cc(C)cc(C(=O)Nc2c(C(=O)Nc3ccccc3F)oc3ccccc23)c1 -26.2%
COc1ccccc1-c1nnc(SCC(N)=O)o1 0%
CCN(CC)CCNC(=O)c1ccc(-c2nc(CS(=O)(=O)c3ccc(C)cc3)c(C)o2)cc1 -21.6% [at 11.5 µM]
CC(C)c1ccc(NC(c2nnc(-c3ccccc3)o2)c2ccc(F)cc2Cl)cc1 (configuration not stated) -27.9%
CCOc1ccc(OCc2ccc(C(=O)Nc3cc(OC)c(OC)c(OC)c3)o2)cc1 -13.8%
Cc1ccc(C)c(NC(=O)N(C)CCc2c(C)nn(C)c2C)c1 4.71%
COc1ccc(CCNS(=O)(=O)c2cc(-c3cc(C)no3)ccc2OC)cc1OC -16.6%
Cc1ccc(N2CC(C(=O)NCCS(=O)(=O)N3CCN(c4ccccc4)CC3)CC2=O)cc1C (configuration not stated) -5.8%
CCNc1nc(N)nc(Oc2ccc(OCC(=O)OC)nn2)n1 -5.3%
CCN(CC)CCNc1ncnc2c1cnn2-c1cc(Cl)ccc1C -8.95%
CCOc1ccc(-c2nc(CNC(=O)NC3CCCCC3)c(C)o2)cc1 -12.5%
Cc1ccc(C(=O)Nc2nc3nc(C)cc(=O)n3[nH]2)cc1 -2.72%
COc1cccc(CNC(=O)CSc2nc(=O)[nH]c3c2CCC3)c1 -11.4%
CCCN(C(=O)C(=O)Nc1ccc2nc3n(c(=O)c2c1)CCCCC3)c1ccc(OCC)cc1 2.06%
CCc1nnc(NS(=O)(=O)c2ccc(N)cc2)s1 1.3%
COc1ccc(CCNc2nc3ccc(Cl)cc3n3cnnc23)cc1OC -9.35%
Cc1cccc2nc(-c3ccc(N(C)C)cc3)c(Nc3ccc4c(c3)OCO4)n12 20.1%
Cc1ccc(NC(=O)/C=C/c2ccc(Cl)cc2)c(Br)c1 1.32%
COc1ccccc1-c1nnc(C2CCN(C(=O)c3cccc(Cl)c3)CC2)o1 -18.1%
Cc1cccc(C(c2sc3nc(-c4ccco4)nn3c2O)N2CCN(Cc3ccccc3)CC2)c1 (configuration not stated) 8.25%
CCOC(=O)c1ccccc1NC(=O)Cn1c(=O)n(CCC(=O)N2CCc3ccccc3C2)c(=O)c2ccccc21 -19.6%
COc1cc(NC(=O)c2cc(Cl)ccc2Cl)ccc1NC(=O)c1cc2ccccc2o1 -20.3%
COCCCNC(=O)c1[nH]c2ccccc2c1Sc1ccc(C)cc1 -20.5%
CN(C)c1ccc(CNC(=O)c2cnc3sc(N4CCCC4)nn3c2=O)cc1 -1.98%
CCS(=O)(=O)N1CCc2cc(C(=O)NCc3ccc(Cl)cc3)ccc21 -28.6%
COc1ccc(NC(=O)c2ccc3c(SCC(=O)O)c4c(nc3c2)CCCC4)cc1OC -13.5%
CC(=O)c1cccc(NC(=O)CSc2nnc3ccc(-c4ccc(F)cc4)nn23)c1 -2.35%
O=C(NCCc1ccccc1)c1cc(-c2ccc(Br)cc2)on1 -10.5% [at 11.5 µM]
CCOC(=O)c1c(C)oc2ncnc(N3CCN(c4ccc(C)cc4C)CC3)c12 -7.18%
CCOC(=O)c1cccc(-n2nnc3c(sc4nc(C)c(Br)c(C)c43)c2=O)c1 0.191%
Cc1sc2ncn(CC(=O)Nc3ccc(F)cc3Cl)c(=O)c2c1S(=O)(=O)N1CCN(c2ncccn2)CC1 -10.6%
Cn1c(=O)c2c(nc(Oc3ccc(C#N)cc3)n2Cc2ccc(Cl)cc2Cl)n(C)c1=O -2.13%
CCOC(=O)c1ccccc1NC(=O)Cn1c(=O)n(CCC(=O)NCc2ccccc2OC)c(=O)c2ccccc21 -18.6%
CCN1CCN(c2csc3ccc(F)cc3c2=O)CC1 6.37%
Cc1cccn2c(=O)cc(CSc3nnc(NC(=O)COc4ccc(F)cc4)s3)nc12 -7.22%
COc1ccc(-c2nc3scc(CCNS(=O)(=O)c4c(C)noc4C)n3n2)cc1OC -6.3%
COc1cccc(CNC(=O)c2[nH]c3cc(C)ccc3c2Sc2ccccc2)c1 26.7%
CCOC(=O)c1c(S(=O)(=O)NCC(=O)N2CCN(c3cccc(Cl)c3)CC2)c(C)n(C)c1C -11.1%
COc1ccccc1NC(=O)c1oc2ccccc2c1NC(=O)C(C)C -11.9%
Cc1cccc(NC(=O)CSc2nnc3scc(-c4ccccc4)n23)c1 -11.7%
